Measurements as given in the supplement of paper PMC11880418.
Where a name gives a salt, the structure may show the parent alone. This is one part of the list. The data scatter; read single values as rough.

What follows are compounds tested on T84 (assay: ALDHbr (CSC) cell proportion score relative to DMSO vehicle (ratio to DMSO); breast (SUM159) / gastric (MKN45) / pancreatic (PANC1) / colon cancer lines; ALDHbr cells have high ALDH activity and are rich in cancer stem cells (CSC); higher = more CSC (ALDHbr) cells remaining). Conditions: 10 µM; 72 h.
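Also: High-content imaging of ALDEFLUOR-stained cells with Hoechst-labelled nuclei in 384-well plates, triplicate wells, scored as Z-score against 0.1% DMSO vehicle, negative meaning fewer ALDHbr cells.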

Q: With CCCC(=O)Nc1ncnc2c1ncn2[C@@H]1O[C@@H]2COP(=O)(O)O[C@H]2[C@H]1OC(=O)CCC [Bucladesine sodium salt] as the compound, how does the ALDHbr read?
A: Its ALDHbr is 0.998.

Q: With CCOC(=O)NNc1nncc2ccccc12 [Todralazine hydrochloride] as the compound, how does the ALDHbr read?
A: Its ALDHbr is 0.963.

Q: With COc1ccccc1OCC(O)CO (centres undefined) [Guaifenesin] as the compound, how does the ALDHbr read?
A: The ALDHbr was 0.948.

Q: For Nc1nc2n[nH]nc2c(=O)[nH]1 [Azaguanine-8], which ALDHbr is on record?
A: The ALDHbr was 0.528.

Q: O=C(NC(Cc1cc(=O)[nH]c2ccccc12)C(=O)O)c1ccc(Cl)cc1 (centres undefined) [Rebamipide] was tested. Which ALDHbr did it give?
A: Its ALDHbr is 0.956.

Q: How did the ALDHbr turn out when Cc1ccsc1/C=C/C1=NCCCN1C [Morantel tartrate] was run?
A: The ALDHbr was 0.97.

Q: For Cc1[nH]cnc1CN1CCc2c(c3ccccc3n2C)C1=O [Alosetron hydrochloride], which ALDHbr is on record?
A: The ALDHbr was 0.995.

Q: For Nc1nc(=O)[nH]cc1F [Flucytosine], which ALDHbr is on record?
A: Its ALDHbr is 1.02.

Q: For Nc1cc(C(Cl)=C(Cl)Cl)c(S(N)(=O)=O)cc1S(N)(=O)=O [Clorsulon], which ALDHbr is on record?
A: Its ALDHbr is 0.84.

Q: Which ALDHbr does the source give for COCCCC/C(=N\OCCN)c1ccc(C(F)(F)F)cc1 [Fluvoxamine maleate] here?
A: The ALDHbr was 0.855.

Q: Which ALDHbr does the source give for Nc1ccc(S(=O)(=O)NC(=O)c2ccccc2)cc1 [Sulfabenzamide] here?
A: The ALDHbr was 1.1.

Q: With CN1CCC[C@@H]1CCO[C@](C)(c1ccccc1)c1ccc(Cl)cc1 [Clemastine fumarate] as the compound, how does the ALDHbr read?
A: Its ALDHbr is 0.13.

Q: With Cn1c(=O)c2nc[nH]c2n(C)c1=O [Theophylline monohydrate] as the compound, how does the ALDHbr read?
A: The ALDHbr was 0.978.

Q: For CC1(C)S[C@@H]2[C@H](NC(=O)[C@H](C(=O)O)c3ccsc3)C(=O)N2[C@H]1C(=O)O [Ticarcillin sodium], which ALDHbr is on record?
A: The ALDHbr was 0.94.

Q: For NCCc1c[nH]cn1 [Histamine dihydrochloride], which ALDHbr is on record?
A: Its ALDHbr is 0.879.

Q: With CC(C)(Oc1ccc(C2CC2(Cl)Cl)cc1)C(=O)O (centres undefined) [Ciprofibrate] as the compound, how does the ALDHbr read?
A: Its ALDHbr is 1.08.

Q: CC(C)(C)NCC(O)COc1cccc2c1CC(O)C(O)C2 (centres undefined) [Nadolol] was tested. Which ALDHbr did it give?
A: Its ALDHbr is 0.915.

Q: CCc1oc2ccccc2c1C(=O)c1cc(Br)c(O)c(Br)c1 [Benzbromarone] was tested. Which ALDHbr did it give?
A: Its ALDHbr is 0.909.

Q: For C[C@]12CC[C@@H]3c4ccc(O)cc4CC[C@H]3[C@@H]1CC[C@@H]2O [Estradiol-17 beta], which ALDHbr is on record?
A: The ALDHbr was 1.06.

Q: Which ALDHbr does the source give for CC(=O)[C@H]1CC[C@H]2[C@@H]3CCC4=CC(=O)CC[C@]4(C)[C@H]3CC[C@]12C [Progesterone] here?
A: The ALDHbr was 0.879.

Q: How did the ALDHbr turn out when C[C@H](N)[C@H](O)c1cccc(O)c1 [Metaraminol bitartrate] was run?
A: Its ALDHbr is 0.968.

Q: How did the ALDHbr turn out when O=C1c2c(O)cccc2Cc2cccc(O)c21 [Anthralin] was run?
A: The ALDHbr was 0.726.

Q: For CCCCOc1cc(C(=O)OCCN(CC)CC)ccc1N [Benoxinate hydrochloride], which ALDHbr is on record?
A: The ALDHbr was 0.838.

Q: For O=C(NCC(O)CO)c1c(I)c(C(=O)NCC(O)CO)c(I)c(N(CCO)C(=O)CO)c1I (centres undefined) [Ioversol], which ALDHbr is on record?
A: The ALDHbr was 1.01.

Q: COc1ccc(CN2CCN(C(c3ccc(F)cc3)c3ccc(F)cc3)CC2)c(OC)c1OC [Lomerizine hydrochloride] was tested. Which ALDHbr did it give?
A: Its ALDHbr is 0.641.

Q: Which ALDHbr does the source give for C[C@]12CC[C@@H]3c4ccc(O)cc4CC[C@H]3[C@@H]1CCC2=O [Estrone] here?
A: The ALDHbr was 0.843.

Q: For Oc1c(Cl)cc(Cl)c2cccnc12 [Chloroxine], which ALDHbr is on record?
A: Its ALDHbr is 0.548.

Q: How did the ALDHbr turn out when CC[C@H]1OC(=O)[C@H](C)[C@@H](O[C@H]2C[C@@](C)(OC)[C@@H](O)[C@H](C)O2)[C@H](C)[C@@H](O[C@@H]2O[C@H](C)C[C@H](N(C)C)[C@H]2O)[C@](C)(OC)C[C@@H](C)C(=O)[C@H](C)[C@@H](O)[C@]1(C)O [Clarithromycin] was run?
A: The ALDHbr was 0.993.

Q: For CN(C)CCOc1ccc(/C(=C(/CCCl)c2ccccc2)c2ccccc2)cc1 [Toremifene], which ALDHbr is on record?
A: The ALDHbr was 0.586.

Q: With CC=CC1=C(C(=O)O)N2C(=O)[C@@H](NC(=O)[C@H](N)c3ccc(O)cc3)[C@H]2SC1 [Cefprozil] as the compound, how does the ALDHbr read?
A: Its ALDHbr is 0.868.

Q: CNCC(O)c1ccc(O)c(O)c1 (centres undefined) [Racepinephrine hydrochloride] was tested. Which ALDHbr did it give?
A: Its ALDHbr is 0.818.

Q: Which ALDHbr does the source give for CN1CCCN(C(c2ccccc2)c2ccc(Cl)cc2)CC1 (centres undefined) [Homochlorcyclizine dihydrochloride] here?
A: Its ALDHbr is 0.732.

Q: Which ALDHbr does the source give for CCN1CCN(c2cc3c(cc2F)c(=O)c(C(=O)O)cn3C2CC2)CC1 [Enrofloxacin] here?
A: The ALDHbr was 0.956.

Q: How did the ALDHbr turn out when CS(=O)(=O)c1ccc(C2=C(c3ccccc3)C(=O)OC2)cc1 [Rofecoxib] was run?
A: Its ALDHbr is 1.15.

Q: With CC(=O)Oc1ccc(C(c2ccc(OC(C)=O)cc2)c2ccccn2)cc1 [Bisacodyl] as the compound, how does the ALDHbr read?
A: Its ALDHbr is 0.916.

Q: Which ALDHbr does the source give for CCOC(=O)C1=C(C)NC(C)=C(C(=O)OC)C1c1cccc(Cl)c1Cl (centres undefined) [Felodipine] here?
A: Its ALDHbr is 0.975.

Q: N=C(N)NS(=O)(=O)c1ccc(N)cc1 [Sulfaguanidine] was tested. Which ALDHbr did it give?
A: The ALDHbr was 0.869.

Q: Which ALDHbr does the source give for CN(C)CC/C=C1\c2ccccc2CSc2ccccc21 [Dosulepin hydrochloride] here?
A: Its ALDHbr is 0.804.

Q: How did the ALDHbr turn out when CCCNC(C)C(=O)Nc1c(C)csc1C(=O)OC (centres undefined) [Articaine hydrochloride] was run?
A: Its ALDHbr is 1.11.
